Results taken from PMC9911399, “Two distinct binding modes provide the RNA-binding protein RbFox with extraordinary sequence specificity”.
Substitutions are numbered along the chain they refer to; changes in the protein carry UniProt numbers. Some of the results follow.

T1: RBFOX1 RRM (Homo sapiens, UniProt Q9NWB1 109-208)
T1 sequence: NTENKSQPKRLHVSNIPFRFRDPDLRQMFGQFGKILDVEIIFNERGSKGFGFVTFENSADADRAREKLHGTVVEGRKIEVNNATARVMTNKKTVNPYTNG

B1: UAACUCC (DNA:RNA)
RNA: GGGAGACCGGAAUUCAGAUUGUCCUAACUCCUUAAAUCCCGUCGUAGCCACCA
DNA 1: CAATCTGAATTCCGGTCTCCC
DNA 2: TGGTGGCTACGACGGGATT
B2: GAUCCUA (DNA:RNA)
RNA: B1 RNA with U25G, A27U, U29C, C30U, C31A
DNA 1: CAATCTGAATTCCGGTCTCCC
DNA 2: TGGTGGCTACGACGGGATT
B3: GAUCCUU (DNA:RNA)
RNA: B1 RNA with U25G, A27U, U29C, C30U, C31U
DNA 1: CAATCTGAATTCCGGTCTCCC
DNA 2: TGGTGGCTACGACGGGATT
B4: UUAUAUA (DNA:RNA)
RNA: B1 RNA with A26U, C28U, U29A, C30U, C31A
DNA 1: CAATCTGAATTCCGGTCTCCC
DNA 2: TGGTGGCTACGACGGGATT
B5: GCUAUGA (DNA:RNA)
RNA: B1 RNA with U25G, A26C, A27U, C28A, C30G, C31A
DNA 1: CAATCTGAATTCCGGTCTCCC
DNA 2: TGGTGGCTACGACGGGATT
B6: UUGUCUG (DNA:RNA)
RNA: B1 RNA with A26U, A27G, C28U, U29C, C30U, C31G
DNA 1: CAATCTGAATTCCGGTCTCCC
DNA 2: TGGTGGCTACGACGGGATT
B7: AAUGGAU (DNA:RNA)
RNA: B1 RNA with U25A, A27U, C28G, U29G, C30A, C31U
DNA 1: CAATCTGAATTCCGGTCTCCC
DNA 2: TGGTGGCTACGACGGGATT
B8: UAGUAUG (DNA:RNA)
RNA: B1 RNA with A27G, C28U, U29A, C30U, C31G
DNA 1: CAATCTGAATTCCGGTCTCCC
DNA 2: TGGTGGCTACGACGGGATT
B9: CACAGAC (DNA:RNA)
RNA: B1 RNA with U25C, A27C, C28A, U29G, C30A
DNA 1: CAATCTGAATTCCGGTCTCCC
DNA 2: TGGTGGCTACGACGGGATT
B10: ACCCUAU (DNA:RNA)
RNA: B1 RNA with U25A, A26C, A27C, C30A, C31U
DNA 1: CAATCTGAATTCCGGTCTCCC
DNA 2: TGGTGGCTACGACGGGATT
B11: AUCGAUG (DNA:RNA)
RNA: GGGAGACCGGAAUUCAGAUUGUCCAUCGAUGUUAAAUCCCGUCGUAGCCACCA
DNA 1: CAATCTGAATTCCGGTCTCCC
DNA 2: TGGTGGCTACGACGGGATT
B12: ACGGUCU (DNA:RNA)
RNA: B11 RNA with U26C, C27G, A29U, U30C, G31U
DNA 1: CAATCTGAATTCCGGTCTCCC
DNA 2: TGGTGGCTACGACGGGATT
B13: CUGGGGC (DNA:RNA)
RNA: B11 RNA with A25C, C27G, A29G, U30G, G31C
DNA 1: CAATCTGAATTCCGGTCTCCC
DNA 2: TGGTGGCTACGACGGGATT
B14: UCUUACU (DNA:RNA)
RNA: B1 RNA with A26C, A27U, C28U, U29A, C31U
DNA 1: CAATCTGAATTCCGGTCTCCC
DNA 2: TGGTGGCTACGACGGGATT
B15: UGUUUCC (DNA:RNA)
RNA: B1 RNA with A26G, A27U, C28U
DNA 1: CAATCTGAATTCCGGTCTCCC
DNA 2: TGGTGGCTACGACGGGATT
B16: CCCGAAG (DNA:RNA)
RNA: B11 RNA with A25C, U26C, U30A
DNA 1: CAATCTGAATTCCGGTCTCCC
DNA 2: TGGTGGCTACGACGGGATT
B17: UAACCAU (DNA:RNA)
RNA: B1 RNA with U29C, C30A, C31U
DNA 1: CAATCTGAATTCCGGTCTCCC
DNA 2: TGGTGGCTACGACGGGATT
B18: GUUACAG (DNA:RNA)
RNA: B11 RNA with A25G, C27U, G28A, A29C, U30A
DNA 1: CAATCTGAATTCCGGTCTCCC
DNA 2: TGGTGGCTACGACGGGATT
B19: UCGUUCC (DNA:RNA)
RNA: B1 RNA with A26C, A27G, C28U
DNA 1: CAATCTGAATTCCGGTCTCCC
DNA 2: TGGTGGCTACGACGGGATT
B20: CGGCAUC (DNA:RNA)
RNA: B11 RNA with A25C, U26G, C27G, G28C, G31C
DNA 1: CAATCTGAATTCCGGTCTCCC
DNA 2: TGGTGGCTACGACGGGATT
B21: UAUUGAC (DNA:RNA)
RNA: B1 RNA with A27U, C28U, U29G, C30A
DNA 1: CAATCTGAATTCCGGTCTCCC
DNA 2: TGGTGGCTACGACGGGATT
B22: UAUUAAU (DNA:RNA)
RNA: B1 RNA with A27U, C28U, U29A, C30A, C31U
DNA 1: CAATCTGAATTCCGGTCTCCC
DNA 2: TGGTGGCTACGACGGGATT
B23: CAAGAAC (DNA:RNA)
RNA: B1 RNA with U25C, C28G, U29A, C30A
DNA 1: CAATCTGAATTCCGGTCTCCC
DNA 2: TGGTGGCTACGACGGGATT
B24: UUCUCGG (DNA:RNA)
RNA: B11 RNA with A25U, G28U, A29C, U30G
DNA 1: CAATCTGAATTCCGGTCTCCC
DNA 2: TGGTGGCTACGACGGGATT
B25: GUAAGUU (DNA:RNA)
RNA: B11 RNA with A25G, C27A, G28A, A29G, G31U
DNA 1: CAATCTGAATTCCGGTCTCCC
DNA 2: TGGTGGCTACGACGGGATT
B26: CGGGGCC (DNA:RNA)
RNA: B1 RNA with U25C, A26G, A27G, C28G, U29G
DNA 1: CAATCTGAATTCCGGTCTCCC
DNA 2: TGGTGGCTACGACGGGATT
B27: AUUUAGA (DNA:RNA)
RNA: B11 RNA with C27U, G28U, U30G, G31A
DNA 1: CAATCTGAATTCCGGTCTCCC
DNA 2: TGGTGGCTACGACGGGATT
B28: CGUUUUC (DNA:RNA)
RNA: B1 RNA with U25C, A26G, A27U, C28U, C30U
DNA 1: CAATCTGAATTCCGGTCTCCC
DNA 2: TGGTGGCTACGACGGGATT
B29: AACAGAU (DNA:RNA)
RNA: B11 RNA with U26A, G28A, A29G, U30A, G31U
DNA 1: CAATCTGAATTCCGGTCTCCC
DNA 2: TGGTGGCTACGACGGGATT
B30: ACAUCCU (DNA:RNA)
RNA: B1 RNA with U25A, A26C, C28U, U29C, C31U
DNA 1: CAATCTGAATTCCGGTCTCCC
DNA 2: TGGTGGCTACGACGGGATT
B31: AACGGUC (DNA:RNA)
RNA: B11 RNA with U26A, A29G, G31C
DNA 1: CAATCTGAATTCCGGTCTCCC
DNA 2: TGGTGGCTACGACGGGATT

What follows are binders tested against T1, RBFOX1 RRM (assay: EMSA; HiTS-Eq, 1 nM pool, 10 min; buffer printed only for the single-RNA assays: 10 mM Tris pH 7.5, 150 mM NaCl, 3.4 mM EDTA, 0.001% NP-40, 30 C). Settings: tags: His6 N-terminal (pET28a); label: 5' 32P.
Procedure, shortened: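 Relative association constants, normalised to the cognate motif, were derived by comparing read counts of each RNA species with those of the control reaction. The RNA sequenced was the free fraction, separated by 8% native PAGE after a 10 min equilibration in 50 µL of 1 nM 5′-radiolabelled RNA (7 randomized nucleotides) with increasing concentrations of purified wild-type or mutant RbFox RRM.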

Point of comparison: B6, binding signal 0.0312 KA relative to UGCAUGU. Against it:
- B1 — lower, 0.00402 KA relative to UGCAUGU
- B2 — lower, 0.00317 KA relative to UGCAUGU
- B3 — lower, 0.00605 KA relative to UGCAUGU
- B4 — lower, 0.00524 KA relative to UGCAUGU
- B5 — lower, 0.0158 KA relative to UGCAUGU
- B7 — lower, 0.0053 KA relative to UGCAUGU
- B8 — lower, 0.0198 KA relative to UGCAUGU
- B9 — lower, 0.00381 KA relative to UGCAUGU
- B10 — lower, 0.00141 KA relative to UGCAUGU
- B11 — lower, 0.00874 KA relative to UGCAUGU
- B12 — lower, 0.0103 KA relative to UGCAUGU
- B13 — lower, 0.013 KA relative to UGCAUGU
- B14 — lower, 0.00398 KA relative to UGCAUGU
- B15 — lower, 0.0194 KA relative to UGCAUGU
- B16 — lower, 0.0101 KA relative to UGCAUGU
- B17 — lower, 0.000622 KA relative to UGCAUGU
- B18 — lower, 0.0109 KA relative to UGCAUGU
- B19 — lower, 0.00686 KA relative to UGCAUGU
- B20 — lower, 0.0161 KA relative to UGCAUGU
- B21 — lower, 0.0107 KA relative to UGCAUGU
- B22 — lower, 0.00844 KA relative to UGCAUGU
- B23 — lower, 0.00116 KA relative to UGCAUGU
- B24 — lower, 0.0142 KA relative to UGCAUGU
- B25 — lower, 0.00979 KA relative to UGCAUGU
- B26 — lower, 0.0267 KA relative to UGCAUGU
- B27 — lower, 0.0108 KA relative to UGCAUGU
- B28 — lower, 0.0118 KA relative to UGCAUGU
- B29 — lower, 0.00207 KA relative to UGCAUGU
- B30 — lower, 0.00291 KA relative to UGCAUGU
- B31 — lower, 0.0046 KA relative to UGCAUGU
